# Some of the results follow.
# B1: chr10:20042908:20042909:+_ENSMUSG00000037608_ENSMUST00000043881|mus_mus|FALSE|FALSE (ssRNA)
# RNA: GGGAGUUCUACAGUCCGACGAUCGGACCGUGACCGACCUCGUCUAGGACUCCUAGAGUGCCUUCUAUUCCAGACAGGUCUAUAGCCACCUCGAUGGUAUCUCCCUCCUCCUCCUUGAUAAUACCCUCUACCCCUUCCUCUGUACAACAGAGGAUUGAGCAUCA
# B2: chr16:17153567:17153568:-_ENSMUSG00000038965_ENSMUST00000090192|mus_mus|motif|central (ssRNA)
# RNA: GGGAGUUCUACAGUCCGACGAUCAAGCGCACUGUAUUCUCUGCUGGCAGACCCUCCCUCCAAGGUCACCACAAACCUGCGGUAACAGGUUCCCUGCAGAGACCCAGCCAGCACAGUCUGACUACAGAUAGGGACCAUGGGGGUCAACAGAGGAUUGAGCAUCA
# B3: chr7:138125181:138125182:+_ENSMUSG00000006205_ENSMUST00000006367|mus_hu|FALSE|FALSE (ssRNA)
# RNA: GGGAGUUCUACAGUCCGACGAUCGAUUCCAGCUGUCACUUUCAAAGUGUUAAUUCCAAUCACUUCACCGUCCAGGUUUACUAACGGGCCUCCCGAGUUUCCAUAGUUGAUGAUGGCGUCGGUCUGGAUGUAGUCCAUGUCUGACAACAGAGGAUUGAGCAUCA
# B4: 77506730_77523245_2100_3pUTR_ENSMUSG00000037857_ENSMUST00000100802|mouse|control|control (ssRNA)
# RNA: GGGAGUUCUACAGUCCGACGAUCCUGGUCCUUCAUUGAUCUGGACUAUCCAUGGCUUCAUUGUAAGUGAUUAUCCUUUUGGGAUCUUGCUUCUGCAAAUUCCAUAUAGAUUCCAUUUCUUUAGUGUGAUAUACAAUAGCAGCCCAACAGAGGAUUGAGCAUCA
# B5: chr12:16048344:16048345:+_ENSG00000023734_ENST00000419869|hu_hu|hu_hu_hu_mus_True|38_98 (ssRNA)
# RNA: GGGAGUUCUACAGUCCGACGAUCAGAUCGUCCAUAAGUUAUAACCAAAAUCUCUCCUUCAGGAAUAUACUCCAUGCUGCUAACAGACAUAUUAAAAUUUAGAGAUUUCACUUCUGUCAUUGUGGCAUGAUCCCAGAGCCGAACCAACAGAGGAUUGAGCAUCA
# B6: chr11:69638232:69638233:-_ENSMUSG00000051790_ENSMUST00000056484|mus_hu|FALSE|FALSE (ssRNA)
# RNA: GGGAGUUCUACAGUCCGACGAUCGGGGAGGAGGUGGGAGAAGGGAUGGGGGAACAGGAUUCUGGGGUACAAAUCCCCACAGAAAUUCUUUGAGGGGGCCAACAUGUGUCCAGGGUGGCAAAAAAAAACCUCACCCUGCACAUGCAACAGAGGAUUGAGCAUCA
# B7: chr17:80560191:80560192:+_ENSG00000141568_ENST00000335255|hu_hu|FALSE|FALSE (ssRNA)
# RNA: GGGAGUUCUACAGUCCGACGAUCUCAGAGUGGAAAAUUUUGCCAGGGACAAAGUCAACACAAAGAAACAAACAACAAAAAAUAGCCAGAAAGAGAACAGUUAAGUGCAGCUCGGUGAGUCCCGGCAGUUCCUUCCCGGCACUGCAACAGAGGAUUGAGCAUCA
# B8: chr10:33190432:33190433:-_ENSG00000150093_ENST00000302278|hu_mus|hu_hu_hu_mus_True|68_68 (ssRNA)
# RNA: GGGAGUUCUACAGUCCGACGAUCUACAUUUUCCAAACCUGCAUGUGAAUAAAACCCUGGCCACAGAGCCCUAAAGCUACCCUACUGUGACUAAGAUGCUGCUGCUGUGAGCUUGGUGUUGCAAAAUCCGCCUGAGUAGGAUUCCAACAGAGGAUUGAGCAUCA
# B9: 2817066_2817186_7146_CDS_ENSG00000167978_ENST00000301740|human|control|control (ssRNA)
# RNA: GGGAGUUCUACAGUCCGACGAUCACUCAUGAGAGGCACCGGGGCUGGAACCUGGGACAUUCUUGCAGCAAGGCCAGCAGCAGACAUGGACGGAGGAGGCCGAGCGGUGCCAAGACUGAUAGCUGUCAGGGCAAGUGCAAUCCUCAACAGAGGAUUGAGCAUCA
# B10: chr14:53113150:53113151:-_ENSG00000197930_ENST00000395686|hu_mus|FALSE|FALSE (ssRNA)
# RNA: GGGAGUUCUACAGUCCGACGAUCGCCCCACAGGCGGCACUUGAAGCAGCCAACACAGUCCAUGAUUCUUGAAAUGUUCCUAAAGUGUAGCCGGAAGUCCUCCUUUAGUUUAUGUGCUUCGUUUUUAUCCCCAGCAAAAAAAGACAACAGAGGAUUGAGCAUCA
# B11: 59272101_59272221_1014_CDS_ENSMUSG00000026024_ENSMUST00000027178|mouse|control|control (ssRNA)
# RNA: GGGAGUUCUACAGUCCGACGAUCGGAAAUGGCACUGCCACUUGUGGUCUGACUGCUUCCCAUGUUCAGUUCAGCUUCUACCACCGUGUUCUCAAACACCUCUCCCUGCUCAUCCAGUGCCUCUGGGUGAGGGCUGGGAGCAGGCAACAGAGGAUUGAGCAUCA
# B12: 222889140_222892615_565_CDS_ENSG00000162819_ENST00000340934|human|control|control (ssRNA)
# RNA: GGGAGUUCUACAGUCCGACGAUCAUUUAUGAAACCUUGUAAAAGUGAGAAAUAUGAAUCUGCUGCAUUCUUCAUCAUUUCUGGAUUACAGCUCAAAUCAGUGAACAGUUCAAGGAGUCGUGCCCUGGAUGACCUCAAGUCAUUCAACAGAGGAUUGAGCAUCA
# B13: chr4:115894766:115894767:+_ENSMUSG00000028698_ENSMUST00000030464|mus_hu|mus_mus_mus_hu_True|18_18 (ssRNA)
# RNA: GGGAGUUCUACAGUCCGACGAUCUUCCACACGGAAAUGUACUUCGGGUUUUCCAACGGCCAGUACCAGUCCGGCCAAACUACCCGAACAGGGUCCUCCCCCUCUCUCCUACAGAACUAAAGCACCCGCCCCCGAACUUUCAAGCAACAGAGGAUUGAGCAUCA
# B14: chr11:53076483:53076484:-_ENSMUSG00000020361_ENSMUST00000020630|mus_mus|FALSE|FALSE (ssRNA)
# RNA: GGGAGUUCUACAGUCCGACGAUCUUCAAAUAAUUUUGGUCUUUCUUCAGAUUCCUGGAACCGUGUCUUAAUGGGUUGACCUAAACUUUUUAAUUCAGCCAAUUUGUCUACAUAAACUUGCUUUGGUUGAUCUUCUCCAUCUUCCAACAGAGGAUUGAGCAUCA
# Biological target: T1, UNK ZnF1-3 (human, UniProt Q9C0B0 31-174)
# T1 sequence: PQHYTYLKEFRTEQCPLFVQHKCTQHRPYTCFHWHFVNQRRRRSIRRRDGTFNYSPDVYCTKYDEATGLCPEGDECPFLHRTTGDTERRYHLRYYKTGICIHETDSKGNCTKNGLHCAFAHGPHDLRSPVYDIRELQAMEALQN
# Experiment: nsRBNS (natural sequence RNA bind-n-seq); RBNS binding buffer (assumed for nsRBNS): 25 mM Tris pH 7.5, 150 mM KCl, 3 mM MgCl2, 0.01% Triton X-100, 500 ug/ml BSA, 20 U/ml SUPERase-In, 4 C; UNK is unkempt and MSI1 is Musashi-1; names of the RNAs are library labels; protein concentration not given here; high values mean tight binding
row,Binder,binding signal [enrichment R]
1,B1,0.902
2,B2,0.958
3,B3,0.659
4,B4,0.371
5,B5,1.34
6,B6,1.76
7,B7,1.73
8,B8,0.96
9,B9,1.28
10,B10,1.59
11,B11,0.684
12,B12,0.706
13,B13,1.07
14,B14,0.655
